Source: PMC8771830
These are yes or no findings as the source states them, for the method shown. Binding seen in cells or lysates may run through a third protein. Some binding calls cover weakened binding; strength is not graded here. For some of these results: Tags and fused reporters may be left off the sequences shown.

The chains behind the UniProt entries cited, without tags or fusion partners. Where a name states a change or a piece, a line headed by the entry shows the natural chain unless it says otherwise. Residues count along the entry.
UniProt Q08369: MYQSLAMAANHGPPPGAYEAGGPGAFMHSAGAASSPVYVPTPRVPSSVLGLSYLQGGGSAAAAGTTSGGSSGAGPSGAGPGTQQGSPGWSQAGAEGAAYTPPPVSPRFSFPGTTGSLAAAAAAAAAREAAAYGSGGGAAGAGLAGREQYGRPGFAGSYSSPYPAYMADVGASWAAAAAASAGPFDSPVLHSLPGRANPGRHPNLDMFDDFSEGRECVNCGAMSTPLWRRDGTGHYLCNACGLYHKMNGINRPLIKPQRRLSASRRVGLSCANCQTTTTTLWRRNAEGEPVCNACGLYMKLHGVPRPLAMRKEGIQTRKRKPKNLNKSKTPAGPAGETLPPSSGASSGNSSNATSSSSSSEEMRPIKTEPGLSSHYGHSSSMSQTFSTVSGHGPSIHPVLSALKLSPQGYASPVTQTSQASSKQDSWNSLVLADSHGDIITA
GST-GATA4 residues 180-326: residues 180-326 of Q08369
GST-GATA4 residues 180-255: residues 180-255 of Q08369
GST-GATA4 residues 256-326: residues 256-326 of Q08369
UniProt Q09472: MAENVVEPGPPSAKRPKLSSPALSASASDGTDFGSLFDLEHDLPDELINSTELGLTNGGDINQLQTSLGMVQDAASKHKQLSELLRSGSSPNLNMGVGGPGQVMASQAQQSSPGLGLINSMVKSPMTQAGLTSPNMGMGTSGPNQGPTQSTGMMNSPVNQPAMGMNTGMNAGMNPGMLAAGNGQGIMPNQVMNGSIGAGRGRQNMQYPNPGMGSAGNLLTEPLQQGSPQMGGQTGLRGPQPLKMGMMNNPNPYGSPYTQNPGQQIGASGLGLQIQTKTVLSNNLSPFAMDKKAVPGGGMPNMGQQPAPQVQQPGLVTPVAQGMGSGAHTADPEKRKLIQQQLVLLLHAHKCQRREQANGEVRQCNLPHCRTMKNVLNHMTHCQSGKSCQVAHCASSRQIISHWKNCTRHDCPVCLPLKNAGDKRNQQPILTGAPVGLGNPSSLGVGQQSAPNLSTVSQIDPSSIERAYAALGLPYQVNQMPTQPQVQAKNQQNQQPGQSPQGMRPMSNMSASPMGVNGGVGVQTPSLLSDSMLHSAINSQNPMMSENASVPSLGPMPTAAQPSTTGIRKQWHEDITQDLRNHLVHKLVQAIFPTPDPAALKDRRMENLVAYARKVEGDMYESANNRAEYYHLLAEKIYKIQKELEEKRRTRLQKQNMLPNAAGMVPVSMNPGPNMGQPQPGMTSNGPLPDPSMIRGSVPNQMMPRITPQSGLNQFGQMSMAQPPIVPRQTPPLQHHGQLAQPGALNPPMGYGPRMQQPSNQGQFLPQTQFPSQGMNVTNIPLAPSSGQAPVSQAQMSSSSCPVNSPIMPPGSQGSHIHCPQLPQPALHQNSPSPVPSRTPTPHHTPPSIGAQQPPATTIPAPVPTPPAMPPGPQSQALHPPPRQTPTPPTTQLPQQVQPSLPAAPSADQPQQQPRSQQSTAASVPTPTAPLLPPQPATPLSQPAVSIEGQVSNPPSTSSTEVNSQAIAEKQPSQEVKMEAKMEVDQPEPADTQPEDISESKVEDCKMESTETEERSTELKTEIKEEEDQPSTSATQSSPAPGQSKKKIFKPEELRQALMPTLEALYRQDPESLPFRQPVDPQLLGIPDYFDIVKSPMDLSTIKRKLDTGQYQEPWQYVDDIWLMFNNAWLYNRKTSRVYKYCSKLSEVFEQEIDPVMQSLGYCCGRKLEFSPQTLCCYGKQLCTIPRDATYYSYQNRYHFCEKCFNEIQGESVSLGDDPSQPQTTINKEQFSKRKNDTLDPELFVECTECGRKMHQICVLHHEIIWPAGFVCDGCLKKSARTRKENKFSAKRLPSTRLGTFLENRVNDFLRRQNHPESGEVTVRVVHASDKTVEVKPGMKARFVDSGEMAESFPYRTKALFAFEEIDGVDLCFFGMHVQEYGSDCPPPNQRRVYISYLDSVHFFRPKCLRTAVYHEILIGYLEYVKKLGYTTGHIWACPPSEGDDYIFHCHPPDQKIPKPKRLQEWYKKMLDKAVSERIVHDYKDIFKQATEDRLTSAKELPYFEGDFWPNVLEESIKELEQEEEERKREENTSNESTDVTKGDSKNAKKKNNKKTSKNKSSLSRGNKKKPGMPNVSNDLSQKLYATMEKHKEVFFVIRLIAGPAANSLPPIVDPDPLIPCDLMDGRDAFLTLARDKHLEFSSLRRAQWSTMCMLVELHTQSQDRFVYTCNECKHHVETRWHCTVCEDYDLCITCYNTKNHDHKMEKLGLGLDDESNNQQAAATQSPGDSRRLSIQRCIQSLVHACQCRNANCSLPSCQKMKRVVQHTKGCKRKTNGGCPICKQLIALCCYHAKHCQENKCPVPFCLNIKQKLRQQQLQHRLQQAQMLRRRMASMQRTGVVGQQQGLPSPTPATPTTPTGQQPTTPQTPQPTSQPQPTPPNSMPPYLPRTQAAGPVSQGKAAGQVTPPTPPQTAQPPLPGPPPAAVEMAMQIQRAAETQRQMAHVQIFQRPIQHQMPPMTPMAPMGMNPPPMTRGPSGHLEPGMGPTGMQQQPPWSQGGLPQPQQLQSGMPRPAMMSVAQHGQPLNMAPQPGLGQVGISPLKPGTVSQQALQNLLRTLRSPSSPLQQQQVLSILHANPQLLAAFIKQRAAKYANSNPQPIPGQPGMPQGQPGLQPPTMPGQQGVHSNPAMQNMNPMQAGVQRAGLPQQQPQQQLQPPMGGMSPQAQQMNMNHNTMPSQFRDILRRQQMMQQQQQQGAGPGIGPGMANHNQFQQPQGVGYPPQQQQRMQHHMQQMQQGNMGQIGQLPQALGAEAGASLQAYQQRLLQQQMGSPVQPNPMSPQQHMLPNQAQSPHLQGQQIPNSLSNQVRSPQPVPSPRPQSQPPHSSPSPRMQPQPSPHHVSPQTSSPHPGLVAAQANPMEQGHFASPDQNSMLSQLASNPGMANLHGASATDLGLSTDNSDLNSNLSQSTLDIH

Tests used:
[1] = molecular target: GATA4 expressed in HEK293T cells (FLAG-GATA4, HA-GATA4, 3xMyc-GATA4) (UniProt Q08369); test: co-IP; nuclear extracts of HEK293T cells expressing FLAG-GATA4 (or FLAG-GATA4 m456A) and HA-GATA4, without or with co-expressed HA-p300 (wild type or AS); anti-FLAG or anti-HA immunoprecipitation, Western blotting with anti-HA and anti-FLAG
[2] = molecular target: GATA4 expressed in HEK293T cells (FLAG-GATA4, HA-GATA4, 3xMyc-GATA4) (UniProt Q08369); test: co-IP; nuclear extracts of HEK293T cells expressing FLAG-GATA4, HA-p300, with or without GMP; anti-FLAG immunoprecipitation; blotted with anti-FLAG, anti-acetyl lysine, anti-p300, anti-HA
[3] = molecular target: GST-GATA4 residues 256-326 (UniProt Q08369); test: pull-down; GST fusion proteins immobilized on Glutathione-Sepharose 4B, mixed with in vitro translated 35S-labelled GATA4, 2 h at 4°C; washed five times with 20 mM Tris pH 8.0, 2.5 mM MgCl2, 100 mM KCl, 5% glycerol, 0.1% Tween20; BAS2000 bio-imaging analyzer; only the target purified
[4] = molecular target: GST-GATA4 residues 180-255 (UniProt Q08369); test: as above
[5] = molecular target: T1, GST-GATA4 residues 308-326 (UniProt Q08369); test: as above
T1 sequence: AMRKEGIQTRKRKPKNLNK

GST-full length GATA4 = GST-full length GATA4 (UniProt Q08369); test: as above
[6] = molecular target: GST-GATA4 residues 180-326 (UniProt Q08369); test: as above

In the case of “GATA4 expressed in HEK293T cells (FLAG-GATA4, HA-GATA4, 3xMyc-GATA4) (from UniProt Q08369 1-441)”, the binding [1] is reported as “binds”.

For HA-p300 (from UniProt Q09472 1-2414), the binding [2] was “binds”.

In the case of “^35S-labelled GATA4 protein (from UniProt Q08369 1-441)”, the binding [3] is reported as “binds”, the binding [4] is reported as “no binding” and the binding [5] is reported as “binds”. For the same substance, the binding (GST-full length GATA4) was “binds” and the binding [6] was “binds”.
